# Data as given in PMC6919601, “Identification of Plasmodium dipeptidyl aminopeptidase allosteric inhibitors by high throughput screening” (PLoS ONE, 2019).
# The campaign covered roughly 110,000 compounds. About 230 (0.21%) showed an effect of 50% or more. The list shows a part of the results.
# Molecular target: DPAP1 (Plasmodium falciparum, UniProt Q8IIJ9)
# Experiment: primary screen, percent inhibition; read by cleavage of a fluorogenic dipeptide substrate; higher = more effect of the substance
# Set-up: species or system P. falciparum D10 trophozoite lysates; single well
# 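Also: 30 min substrate incubation versus DMSO and 10 µM JCP410 controls.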
# Chain of DPAP1 (Q8IIJ9 whole entry, looked up): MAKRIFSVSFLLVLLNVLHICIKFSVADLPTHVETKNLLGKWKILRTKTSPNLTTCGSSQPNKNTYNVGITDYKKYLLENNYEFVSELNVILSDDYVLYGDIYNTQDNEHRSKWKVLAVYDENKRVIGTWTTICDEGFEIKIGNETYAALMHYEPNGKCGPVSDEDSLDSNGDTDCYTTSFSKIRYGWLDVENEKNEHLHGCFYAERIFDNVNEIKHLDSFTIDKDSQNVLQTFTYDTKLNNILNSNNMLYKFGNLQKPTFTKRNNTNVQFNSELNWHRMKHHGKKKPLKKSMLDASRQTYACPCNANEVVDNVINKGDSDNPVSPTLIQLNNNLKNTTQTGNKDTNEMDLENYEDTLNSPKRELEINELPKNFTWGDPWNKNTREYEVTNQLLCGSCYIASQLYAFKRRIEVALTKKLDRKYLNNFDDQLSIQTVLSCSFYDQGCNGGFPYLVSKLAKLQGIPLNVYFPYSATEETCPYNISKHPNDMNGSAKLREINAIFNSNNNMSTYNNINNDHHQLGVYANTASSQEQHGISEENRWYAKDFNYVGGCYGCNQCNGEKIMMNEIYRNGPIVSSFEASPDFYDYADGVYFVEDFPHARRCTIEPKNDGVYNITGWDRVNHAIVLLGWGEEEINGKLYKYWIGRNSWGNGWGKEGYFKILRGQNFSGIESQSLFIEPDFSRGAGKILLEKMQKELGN
row,Structure (SMILES),% Inhibition @ 10 uM [%]
1,CCOc1ccc(N2C(=O)CC(NCCc3ccccc3)C2=O)cc1 (stereo not drawn),-11
2,O=C(/C=C/c1cccc([N+](=O)[O-])c1)Nc1cccc(Cl)c1,-3.94
3,Cc1ccc(-c2cn3c(n2)sc2cc(C(=O)NC(C)C)ccc23)c(C)c1,3.27
4,CC(C)C(=O)Nc1c(C(=O)NC(C)(C)C)oc2ccccc12,-1.61
5,C=CCOc1ccc(C2c3c(oc4ccccc4c3=O)C(=O)N2c2nnc(C(C)C)s2)cc1 (stereo not drawn),-1.86
6,O=C1N=C(Nc2ccccn2)SC1Cc1cccc(Cl)c1Cl (stereo not drawn),2.38
7,Cc1ccccc1N(CC(=O)N1CCc2ccccc2C1)S(C)(=O)=O,-1.89
8,N#CSCC(=O)n1c2c(c3ccccc31)CCCC2,-8.95
9,CCOC(=O)c1nc2ccccc2nc1O,1.9
10,CN(C)c1nc2ccccc2n2cnnc12,-0.692
11,CN(C)c1ccc(NC(=O)/C=C/c2ccccc2)cc1,4.26
12,COc1cc2nc(O)c3sc4cc(OC)c(OC)cc4c3c2cc1OC,-6.05
13,Cc1ccc(C2(O)CSC3=C(C#N)C(c4cccc(F)c4)CC(=O)N32)cc1 (stereo not drawn),-3.52
14,COc1ccc2[nH]c3c(=O)n(CC(=O)NC(C)CCc4ccccc4)c(=S)[nH]c3c2c1 (stereo not drawn),-2.19
15,CC(C)CCNC(=O)c1cc2c(Cl)ccc3c2n1CCO3,4.12
16,Cc1ccc2cnn(CC(=O)N3CC(C)CC(C)C3)c2c1 (stereo not drawn),0.596
17,CCO/C(O)=C/c1nc2ccccc2nc1O,3.15
18,Fc1c(F)c(C(F)(F)F)c(F)c(F)c1-n1nnc2ccccc21,-1.68
19,CCCCC(=O)Nc1nnc(S(=O)(=O)N2CCC(C)CC2)s1,0.00665
20,CC(=O)c1ccc(NC(=O)CCCOc2ccc(Cl)cc2C)cc1,-1.44
21,O=C(c1ccc(Cl)c(Cl)c1)N1CCN(Cc2ccccc2)CC1,-6.68
22,CCN1CCN(CC(O)COc2ccc(C(C)C)cc2)CC1 (stereo not drawn),-5.5
23,O=C(NCc1cccnc1)c1cc2c(Cl)nc3ccccc3c2s1,1.38
24,CCn1c(C(=O)O)c(CNCCC2=CCCCC2)c2ccc(C)cc21,-5.37
25,COc1ccc(C(=O)N(Cc2ccc(Cl)cc2)Cc2ccco2)cc1,-7.86
26,CCOc1cccc(-c2nc3c(=O)[nH]c(=O)n(C)c3[nH]2)c1,-3.53

row,Structure (SMILES),% Inhibition @ 10 uM [%]
1,CCOC(=O)C1=CN(Cc2ccc(OC)cc2)C=C(C(=O)OCC)C1c1ccc(OCC)cc1,0.219
2,COc1ccc(OC2CCNCC2)cc1,-1.07
3,C/C=C(\C)CN1CCN(Cc2ccccc2)CC1,-2.21
4,CCOC(=O)Nc1nc2ccc(C)cc2s1,-5.15
5,CCOC(=O)C1=C(c2ccccc2)NC(SC)=C(C#N)C1c1ccccc1Cl (stereo not drawn),0.723
6,CC1CN(C(=O)Cn2cc(SCC(=O)NCCc3ccccc3)c3ccccc32)CC(C)O1 (stereo not drawn),8.23
7,CCOc1ccc(C(=O)Nc2nc3ccccc3s2)cc1,8.21
8,COc1ccc(C)cc1-n1c(C)cc(/C=C2\C(=N)N3N=C(N4CCOCC4)SC3=NC2=O)c1C,0.0579
9,CCOC(=O)N1CCC(c2nnc(-c3ccc(Cl)cc3Cl)o2)CC1,-1.03
10,CN1CCC(N(C)Cc2cc(Cl)ccc2[N+](=O)[O-])CC1,4.73
11,O=C(Cn1cnc2c(oc3ccccc32)c1=O)NCC1CCCO1 (stereo not drawn),-7.67
12,Cn1cnc2c(sc3nc4c(cc32)COC(C)(C)C4)c1=O,3.47
13,O=C(NCCc1ccccc1)C1CCN(S(=O)(=O)N2CCOCC2)CC1,5.23
14,CCOC(=O)N1CCN(C2CCN(CCc3ccccc3)CC2)CC1,0.217
15,Cc1nc(=O)c(-c2ccccc2)c(C)n1-c1cccc(Br)c1,-3.35
16,Cc1ccsc1CN(C(=O)c1cc2ccccc2oc1=O)C1CCS(=O)(=O)C1 (stereo not drawn),-6.5
17,COc1ccc(CC(=O)Nc2ccc(S(=O)(=O)N3CCCCCC3)cc2)cc1,8.49
18,CC(=O)c1ccc(NS(=O)(=O)c2ccc(N)cc2)cc1,0.408
19,COc1ccc(Br)cc1CNCc1c(C(=O)O)[nH]c2cc(C)ccc12,-2.39
20,Fc1ccccc1CN1CCN(c2ccccc2Cl)CC1,-2.7
21,COc1ccc(C(=O)NCc2cn3c(C)csc3n2)c(OC)c1,2.57
22,COc1ccc(CCNC(=O)c2cnn3c(C)c(Cc4cc(C)ccc4C)c(C)nc23)cc1OC,-2.26
23,Cc1ccc(CNc2nc3ccccc3c3nc(-c4ccncc4)nn23)cc1,0.981
24,O=C(Nc1cc2nn(-c3ccccc3)nc2cc1Cl)c1ccc2c(c1)OCCO2,-1.06
25,O=C(COc1ccc2ccccc2c1)Nc1c2c(nn1-c1cccc(Cl)c1)CSC2,4.51
26,COc1cccc(-c2nc(CS(=O)(=O)CC(=O)N3CCN(Cc4ccccc4)CC3)c(C)o2)c1,-7.53

row,Structure (SMILES),% Inhibition @ 10 uM [%]
1,CC(C)Cn1c(SCc2nc(-c3cccs3)no2)nnc1-c1ccncc1,-2.21
2,Cc1noc(C)c1-c1ccc(C(=O)N[C@@H](CC(C)C)C(=O)NCC#N)cc1,-0.207
3,O=C(Nc1ccccc1Br)c1cccc2c1-c1ccccc1C2=O,-4.14
4,CCN(CC)C(=O)c1ccc(SC)cc1OC,-0.413
5,COc1ccc(NC(=O)CN(c2cc(Cl)ccc2OC)S(C)(=O)=O)c(OC)c1,-0.185
6,COc1cc(CC(C)N2CCc3cc(OC)c(OC)cc3C2)ccc1O (stereo not drawn),-1.75
7,Cc1cc(C)nc(NC(=O)NS(=O)(=O)N2CCCCC2)n1,-0.274
8,CCCSC1=C(C#N)C(c2ccccc2C)CC(=O)N1 (stereo not drawn),5.05
9,O=C(CSCc1cnn(-c2ccccc2)c1-n1cccc1)N1CCN(Cc2ccccc2)CC1,-1.3
10,CCCCCc1ccc(-c2ccc(C(=O)Nc3ccc(Cl)c4c3C(=O)c3ccccc3C4=O)cc2)cc1,-0.268
11,CCSC1=NSC2=NC(=O)/C(=C\c3ccc(OS(C)(=O)=O)c(OC)c3)C(=N)N12,-11.3
12,CCCCOC(=O)C1=C(C)NC(=O)NC1c1ccc(O)c(OCC)c1 (stereo not drawn),2.7
13,O=C1CCC(C(=O)Nc2cccc(C(F)(F)F)c2)N1 (stereo not drawn),-4.03
14,COc1ccc(NC(=O)c2ccccc2Cl)c(N)c1,1.92
15,Cc1ccc(C(=O)C2=C(O)C(=O)N(Cc3ccco3)C2c2cccc(Cl)c2)o1 (stereo not drawn),-9.98
16,COc1cc(OC)cc(C(=O)Nc2cccc3c2C(=O)N(c2ccccc2)C3=O)c1,16.5
17,c1ccc(-c2ccc(CNCC3CCCO3)cc2)cc1 (stereo not drawn),2.38
18,COc1ccc(C(=O)N/C(=C\c2ccc3c(c2)OCO3)C(=O)N2CCOCC2)cc1,-2.87
19,O=c1cnnc2sc(SCc3ccccc3)nn12,4.18
20,CCOc1ccc(CCNC(=O)C2=C(C)C(=O)OC23CCC(C)CC3)cc1 (stereo not drawn),-0.138
21,COc1ccc2cc3cc(C(=O)NCCN4CCN(Cc5ccccc5)CC4)sc3nc2c1,94.4
22,CCC(C)NC(=O)CCNS(=O)(=O)c1ccc(Br)cc1 (stereo not drawn),-0.406
23,CCCC1=C(C(=O)OCC)C(c2ccc(F)c(F)c2)C(C#N)=C(N)O1 (stereo not drawn),-3.13
24,OCCN1CCN(c2nc3ccccc3nc2-c2ccccc2)CC1,-1.05
25,Cc1ccc(C)n1-c1nnc(N2CCCC(C(=O)NC(C)C)C2)s1 (stereo not drawn),-4.15
26,CC(=O)N[C@@H](Cc1ccccc1)C(=O)N[C@@H](C)c1ccccc1,14.9

row,Structure (SMILES),% Inhibition @ 10 uM [%]
1,CC(C)(C(=O)O)c1ccc([N+](=O)[O-])cc1,1.62
2,CN1CCCN(Cc2ccc(Br)cc2)CC1,-2.03
3,CCO/C(O)=C1\C(C)=Nc2nnnn2C1c1ccccc1OCC (stereo not drawn),-1.62
4,COC(=O)C1=CN(C(C)c2ccccc2)C=C(C(=O)OC)C1c1ccc(Cl)c(Cl)c1 (stereo not drawn),-1.46
5,CC(C)(C)Cc1nnc(NC(=O)CSCc2ccccc2)s1,-4.84
6,CCc1ccc(C2=CC(c3ccccc3C)n3ncnc3N2)cc1 (stereo not drawn),-1.62
7,CC1CN(C(=O)CCN2C(=O)c3ccccc3C2=O)CC(C)O1 (stereo not drawn),2.67
8,CC1=N/C(=C2/C=C(c3cccs3)Oc3ccccc32)C(=O)O1,3.54
9,Cc1cccc(-c2nnc(NC(=O)c3cccc(C(F)(F)F)c3)s2)c1,1.67
10,N#CC1(Nc2ccccc2)C(=O)Nc2ccccc21 (stereo not drawn),-8.23
11,Clc1nc(-c2ccccc2)cc(-c2ccc(Br)cc2)n1,2.46
12,COC(=O)CC(NC(=O)c1ccc(C)cc1)c1ccccc1 (stereo not drawn),3.06
13,O=C(COc1ccccc1Cl)N1CCc2ccccc21,-3.72
14,CC(NC(=O)c1cccnc1)c1ccc(O)cc1 (stereo not drawn),-8.42
15,CCCCNC(=O)CC(NCCCC)c1ccccc1O (stereo not drawn),7.92
16,CCc1cccc(C)c1NC(=O)C1C2CCC(O2)C1C(=O)O (stereo not drawn),-3.03
17,CC(C)Cn1cc(NC(=O)N(Cc2ccccc2)C(C)C)c2ccccc2c1=O,-6.93
18,Cn1c2ccccc2c2c(C(=O)NC3CCN(Cc4ccccc4)CC3)cn(C3CCCC3)c(=O)c21,0.163
19,O=C1CC(c2ccccc2F)NC(NC(=O)c2ccc(OC(F)F)cc2)=N1 (stereo not drawn),3.27
20,COc1ccc(CCN2C(=O)C3C(C2=O)C2C=CC3C23CC3)cc1OC (stereo not drawn),-4.43
21,COc1ccc(-n2nnnc2S(=O)(=O)Cc2ccc(C(=O)O)cc2)cc1,4.32
22,O=C(COc1nsnc1N1CCOCC1)c1ccccc1,-1.15
23,COc1ccc(-c2cc(C(=O)NC(C)C)no2)cc1OC,-5.09
24,O=C(CN1CCCCC1)Nc1ccc(OC(F)(F)F)cc1,3.29
